Legend:
[1] = Toxicological experiments of repeated administration to cynomolgus monkeys; format: in vivo; conditions: cynomolgus monkey
Protocol: Experimental Example 3: Toxicological Experiments of 02-1-LP1 and 02-1-Vc-MMAE on Cynomolgus Monkeys
Experiment of repeated administration of 02-1-LP1 (prepared in Example 5) to cynomolgus monkeys: 6 cynomolgus monkeys (purchased from Guangxi Frontier Biotechnology Co., Ltd.) were randomly divided into 3 groups, and there were one male and one female in each group. Vehicle, 10 mg/kg of 02-1-LP1, and 30 mg/kg of 02-1-LP1 were infused intravenously on the 1st day, the 22nd day and the 43rd day, respectively. […] On the 50th day, the animals were euthanized and sampled for pathological analysis. […] HNSTD (maximum dose without severe toxicity) was 30 mg/kg.
Experiment of repeated administration of 02-1-vc-MMAE (prepared in Comparative Example 1) to cynomolgus monkeys: 6 cynomolgus monkeys were randomly divided into 3 groups, and there were one male and one female in each group. 3 mg/kg 02-1-vc-MMAE, 6 mg/kg 02-1-vc-MMAE, and 10 mg/kg 02-1-vc-MMAE were infused intravenously on the 1st day, the 22nd day, respectively. […] On the 43rd day, the animals were euthanized and sampled for pathological analysis. […] HNSTD (maximum dose without severe toxicity) was 6 mg/kg.

[2] = tested on: LD1-0015-200617 human esophagus squamous cell carcinoma PDX model; assay: In vivo inhibitory effect on LD1-0015-200617 PDX model and body weight change; parameters: species or system Nu/Nu mice
From the text: Experimental Example 9: In Vivo Inhibitory Effect on LD1-0015-200617 Human Esophagus Squamous Cell Carcinoma PDX Model and Effect Thereof on Body Weight Change of Mice
LD1-0015-200617 (LideBiotech CO., LTD) is a human esophagus squamous cell carcinoma patient derived xenograft model which expresses human MUC18 (H-Score=75). 6-8 weeks Nu/Nu mice were purchased from Beijing Vital River Laboratory Animal Technology Co., Ltd. Tumors of LD1-0015-200617 were sliced into about 3 mm×3 mm×3 mm fragments and implanted subcutaneously into the flank of mice. On day 39 (mean tumor size ˜171 mm^3) following implanting, Human IgG-LP1 prepared in Comparative Example 5, and 02-1-LP1 prepared in Example 5 were intravenously injected, respectively. The administration doses were all 10 mpk, once a week for three times (QW×3). After administration, a tumor volume was measured twice a week with a vernier caliper, and the tumor volume was calculated according to the following formula: TV=(length×width)^2/2.

[3] = tested on: SCC-9 human head and neck squamous cell carcinoma CDX model; assay: In vivo inhibitory effect on SCC-9 CDX model and body weight change; parameters: species or system Balb/c nude mice; conditions: 2.5, 5, 10 mpk intravenous
From the text: Experimental Example 7: In Vivo Inhibitory Effect on SCC-9 Human Head and Neck Squamous Cell Carcinoma CDX Model and Effect Thereof on Body Weight Change of Mice
6-week-old Balb/c nude mice were purchased from Shanghai BK/KY Biotechnology Co., Ltd. Each mouse was subcutaneously inoculated with eight million SCC-9 cells (purchased from ATCC) to obtain CDX model. […] DPBS (Dulbecco's Phosphate-Buffered Saline) was negative control. The administration was once a week for two times (QW×2). After administration, a tumor volume was measured twice a week with a vernier caliper, and the tumor volume was calculated according to the following formula: TV=(length×width)^2/2.

[4] = tested on: OV-10-0073 human ovarian cancer PDX model; assay: In vivo inhibitory effect on OV-10-0073 PDX model and body weight change; parameters: species or system BALB/c nude mice
From the text: Experimental Example 14: In Vivo Inhibitory Effect on OV-10-0073 Human Ovarian Cancer PDX Model and Effect Thereof on Body Weight Change of Mice
OV-10-0073 (WuXi AppTech (Shanghai) Co., Ltd) is a human ovarian cancer patient derived xenograft model which expresses human MUC18 (H-Score=40). 6-8 weeks BALB/c nude mice were purchased from Beijing Vital River Laboratory Animal Technology Co., Ltd. Tumors of OV-10-0073 were sliced into about 30 mm^3 fragments and implanted subcutaneously into the flank of mice. On day 34 (mean tumor size ˜185 mm^3) following implanting, a single dose of Human IgG-LP1 (2.5, 5 mpk) prepared in Comparative Example 5, and 02-1-LP1 (1.25, 2.5, 5 mpk) prepared in Example 5 were intravenously injected, respectively. After administration, a tumor volume was measured twice a week with a vernier caliper, and the tumor volume was calculated according to the following formula: TV=(length×width)^2/2.

[5] = tested on: LD1-2025-362797 human small cell lung cancer PDX model; assay: In vivo inhibitory effect on LD1-2025-362797 PDX model and body weight change; parameters: species or system Nu/Nu mice
From the text: Experimental Example 11: In Vivo Inhibitory Effect on LD1-2025-362797 Human Small Cell Lung Cancer PDX Model and Effect Thereof on Body Weight Change of Mice
LD1-2025-362797 (LideBiotech CO., LTD) is a human small cell lung cancer patient derived xenograft model which expresses human MUC18 (H-Score=110). 6-8 weeks Nu/Nu mice were purchased from Beijing Vital River Laboratory Animal Technology Co., Ltd. Tumors of LD1-2025-362797 were sliced into about 3 mm×3 mm×3 mm fragments and implanted subcutaneously into the flank of mice. On day 21 (mean tumor size ˜144 mm^3) following implanting, a first dose of 10 mpk 02-1-LP1 prepared in Example 5 was intravenously injected. And a second dose of 10 mpk 02-1-LP1 was also intravenously injected when the tumor volume regrew to about 700 mm^3 (49th day after the first dose). After administration, a tumor volume was measured twice a week with a vernier caliper, and the tumor volume was calculated according to the following formula: TV=(length×width)^2/2.

[6] = repeated intravenous administration

B1: 02-1-LP1 (conjugate)
heavy: QVQLVQSGAEVKKPGASVKVSCKASGYTFTDYNMDWVRQSPGQSLEWMGDINPNNGATLYNQNFRGRVTITRDTSASTAYMELSSLRSEDTAVYYCTRSGYDDYYALDYWGQGTTVTVSS[human IgG1 constant region left out]
light: DTQLTQSPSFLSASVGDRVTITCSASSSVGYMHWYQQKPGKAPKLLIYSTSNLASGVPSRFSGSGSGTEYTLTISSLQPEDFATYYCHQWSNYPSTFGQGTKLEIKRTVAAPSVFIFPPSDEQLKSGTASVVCLLNNFYPREAKVQWKVDNALQSGNSQESVTEQDSKDSTYSLSSTLTLSKADYEKHKVYACEVTHQGLSSPVTKSFNRGEC
With B1 the “death of the animals” value ([1]; all doses (10 and 30 mg/kg), days 1, 22, 43) was “did not cause death of the animals”, the “safety (comparison of the two ADCs)” value ([1]; repeated administration) was “significantly better than that of 02-1-vc-MMAE” and the “HNSTD (maximum dose without severe toxicity)” value [1, 6] was 30 mg/kg. The Lethal dose [1, 6] was >30 mg/kg, the “Target organs related to the test substance” value [1, 6] was “reticulocytes, digestive tract, kidney, and spleen” and the Blood biochemistry ([1]; ≤30 mg/kg) was ≤30 mg/kg: Normal. For the same molecule, the “body weight of mice” value ([2]; 10 mpk intravenous, QW×3, FIG. 26B) was “little effects on the body weight of mice”, the “tumor growth (tumor volume)” value ([2]; MUC18 H-Score=75, 10 mpk intravenous, QW×3, FIG. 26A) was “can effectively inhibit tumor growth” and the “tumor growth (tumor volume)” value ([3]; QW×2, FIG. 24A) was “can effectively inhibit tumor growth”. The “body weight of mice” value ([3]; QW×2, FIG. 24B) was “little effects on the body weight of mice”, the “tumor growth (tumor volume)” value ([4]; MUC18 H-Score=40, single dose 1.25, 2.5, 5 mpk intravenous, FIG. 31A) was “can effectively inhibit tumor growth” and the “body weight of mice” value ([4]; single dose 1.25, 2.5, 5 mpk intravenous, FIG. 31B) was “little effects on the body weight of mice”. The “body weight of mice” value ([5]; 10 mpk intravenous, two doses, FIG. 28B) was “little effects on the body weight of mice”, the “tumor growth (tumor volume)” value ([5]; MUC18 H-Score=110, first dose 10 mpk intravenous, FIG. 28A) was “can effectively inhibit tumor growth” and the “activity against regrown tumor after the second dose” value ([5]; second dose 10 mpk on 49th day after first dose, tumor regrown to about 700 mm^3) was “still active against the regrown tumor”.
